Results published in the supplement of paper PMC10126150.
Values marked as one replicate rest on one cluster of the flow cell; about a third of the high ones do not repeat.
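Note: ATP exposure 15 min at 22 °C before imaging.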

Each sequence was assayed on ATP (assay: switch fluorescence ratio, 500 uM ATP over buffer (Cy3 cluster intensity, sum of 5 cycles each) (fold (ratio)); higher = stronger signal-on switching upon ATP binding; sequences stand for … in TCGTCGGCAGCGTCAGATGTGTATAAGAGACAGTTTTTTTTTTTTTTTTTTTTTTTTT…TC). Conditions: aptamer strand: ATP DNA aptamer (quencher-CACCTGGGGGAGTATTGCGGAGGAAGG + anchor), 100 nM annealed; ATP concentration: 500 uM; one replicate.
In short: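 Clusters carrying Cy3-labelled switching strands on a modified Illumina MiSeq flow-cell were annealed to 100 nM quencher-labelled ATP aptamer and imaged in selection buffer. They were imaged again after 15 min with 500 uM ATP at 22 °C, over five buffer/ATP cycles with NaOH stripping and re-annealing in between. For each cluster, the fluorescence ratio is the summed Cy3 intensity of the target cycles divided by that of the buffer cycles, averaged per switch-domain sequence. Clusters outside 100-1000 RFU were left out.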
GGTGGAGTTG was tested, and the switch fluorescence ratio was 0.977.
GGTGGCTCCG gave a switch fluorescence ratio of 1.
In the case of GGTGGGAGCG, the switch fluorescence ratio is reported as 0.984.
Work on GGTGGGCGCG yielded a switch fluorescence ratio of 0.978.
With GGTGGGCGT the switch fluorescence ratio was 0.924.
GGTGGGGATC was tested, and the switch fluorescence ratio was 0.978.
In the case of GGTGGGTTAC, the switch fluorescence ratio is reported as 1.05.
GGTGGTATGT showed a switch fluorescence ratio of 0.993.
In the case of GGTGGTTTGA, the switch fluorescence ratio is reported as 0.986.
Work on GGTGGTTTGC yielded a switch fluorescence ratio of 1.11.
With GGTGTAGACT the switch fluorescence ratio was 0.944.
GGTGTCCTTC showed a switch fluorescence ratio of 1.03.
With GGTGTCTTCT the switch fluorescence ratio was 0.969.
GGTGTGGCCA gave a switch fluorescence ratio of 0.962.
In the case of GGTGTTCCGG, the switch fluorescence ratio is reported as 1.04.
GGTGTTCCTC showed a switch fluorescence ratio of 1.07.
Work on GGTGTTGTGT yielded a switch fluorescence ratio of 0.992.
With GGTTAACTTT the switch fluorescence ratio was 0.981.
Sequence GGTTAATCAA has a switch fluorescence ratio of 0.982.
With GGTTAATGCA the switch fluorescence ratio was 0.993.
Sequence GGTTACATGG has a switch fluorescence ratio of 1.02.
Sequence GGTTACGTCG has a switch fluorescence ratio of 0.997.
GGTTACGTGT was tested, and the switch fluorescence ratio was 0.933.
In the case of GGTTAGAGGA, the switch fluorescence ratio is reported as 1.01.
GGTTATCGCA gave a switch fluorescence ratio of 1.04.
Sequence GGTTATG has a switch fluorescence ratio of 1.02.
In the case of GGTTATTTAC, the switch fluorescence ratio is reported as 0.992.
Sequence GGTTCAATGA has a switch fluorescence ratio of 0.923.
GGTTCAATTT gave a switch fluorescence ratio of 0.976.
GGTTCAGGG showed a switch fluorescence ratio of 0.977.
For GGTTCAGGTC, the switch fluorescence ratio was 0.992.
For GGTTCAGTTA, the switch fluorescence ratio was 0.972.
With GGTTCATGAA the switch fluorescence ratio was 1.08.
GGTTCCAAGA gave a switch fluorescence ratio of 0.968.
GGTTCCGGCC showed a switch fluorescence ratio of 1.02.
GGTTCCTAGA was tested, and the switch fluorescence ratio was 1.02.
GGTTCGGGCC gave a switch fluorescence ratio of 1.01.
GGTTCTAAGG was tested, and the switch fluorescence ratio was 0.981.
Work on GGTTCTCTGG yielded a switch fluorescence ratio of 0.98.
Sequence GGTTCTCTGT has a switch fluorescence ratio of 1.
GGTTGAACGT gave a switch fluorescence ratio of 1.02.
Work on GGTTGACCTC yielded a switch fluorescence ratio of 1.03.
GGTTGAGCAG was tested, and the switch fluorescence ratio was 0.963.
Work on GGTTGATGAC yielded a switch fluorescence ratio of 1.01.
For GGTTGCAG, the switch fluorescence ratio was 0.993.
GGTTGCCCAA was tested, and the switch fluorescence ratio was 1.18.
GGTTGCTTCG gave a switch fluorescence ratio of 0.978.
Sequence GGTTGGAT has a switch fluorescence ratio of 0.983.
Work on GGTTGGATTC yielded a switch fluorescence ratio of 1.03.
Sequence GGTTGGCCTT has a switch fluorescence ratio of 0.985.
GGTTGGGGTC showed a switch fluorescence ratio of 0.962.
For GGTTGGTCAG, the switch fluorescence ratio was 1.03.
GGTTGGTCGC was tested, and the switch fluorescence ratio was 1.02.
Sequence GGTTGTACTG has a switch fluorescence ratio of 0.932.
Work on GGTTGTCTTT yielded a switch fluorescence ratio of 0.992.
GGTTTACAGG showed a switch fluorescence ratio of 0.975.
With GGTTTCAACT the switch fluorescence ratio was 1.02.
In the case of GGTTTGAAAG, the switch fluorescence ratio is reported as 0.99.
Work on GGTTTGGCTT yielded a switch fluorescence ratio of 1.02.
GGTTTGGGTC was tested, and the switch fluorescence ratio was 0.975.
Sequence GGTTTGGTGC has a switch fluorescence ratio of 1.05.
In the case of GGTTTGTTC, the switch fluorescence ratio is reported as 0.971.
With GGTTTTACAG the switch fluorescence ratio was 1.02.
With GGTTTTAGTC the switch fluorescence ratio was 0.977.
GGTTTTATCC showed a switch fluorescence ratio of 1.06.
With GGTTTTGA the switch fluorescence ratio was 1.03.
In the case of GGTTTTGTC, the switch fluorescence ratio is reported as 1.04.
GTAAAAACCT gave a switch fluorescence ratio of 1.03.
In the case of GTAAAAATG, the switch fluorescence ratio is reported as 0.993.
In the case of GTAAAACGTG, the switch fluorescence ratio is reported as 0.967.
Sequence GTAAACGTTG has a switch fluorescence ratio of 0.962.
GTAAAGAGTC showed a switch fluorescence ratio of 1.03.
With GTAAATATTT the switch fluorescence ratio was 1.04.
For GTAAATGTTC, the switch fluorescence ratio was 1.02.
Work on GTAACCCGGG yielded a switch fluorescence ratio of 1.04.
Work on GTAACCCTGG yielded a switch fluorescence ratio of 1.05.
GTAACGAAAA gave a switch fluorescence ratio of 1.16.
Work on GTAACGTCCG yielded a switch fluorescence ratio of 1.
With GTAACTCTGT the switch fluorescence ratio was 0.984.
GTAAGATATA gave a switch fluorescence ratio of 1.01.
GTAAGCATTC was tested, and the switch fluorescence ratio was 1.6.
For GTAAGCCAGC, the switch fluorescence ratio was 1.01.
GTAAGGACA was tested, and the switch fluorescence ratio was 1.02.
GTAAGGCGGA gave a switch fluorescence ratio of 1.
For GTAAGGGGA, the switch fluorescence ratio was 1.47.
In the case of GTAAGTGTTG, the switch fluorescence ratio is reported as 1.01.
With GTAATACAAT the switch fluorescence ratio was 0.968.
With GTAATAGGAA the switch fluorescence ratio was 1.02.
GTAATAGTCG gave a switch fluorescence ratio of 1.03.
In the case of GTAATGACCG, the switch fluorescence ratio is reported as 1.17.
Work on GTAATGCCAC yielded a switch fluorescence ratio of 0.99.
GTAATGTGTA showed a switch fluorescence ratio of 0.983.
GTAATTCCGG showed a switch fluorescence ratio of 0.995.
With GTAATTTCTG the switch fluorescence ratio was 0.974.
Work on GTACCATCAT yielded a switch fluorescence ratio of 1.02.
GTACCGGAAA showed a switch fluorescence ratio of 1.09.
GTACGACGTT was tested, and the switch fluorescence ratio was 1.04.
GTACGCAACC was tested, and the switch fluorescence ratio was 3.52.
GTACGGCCAT was tested, and the switch fluorescence ratio was 1.06.
GTACTCCAGG gave a switch fluorescence ratio of 2.15.
GTACTCGCTT was tested, and the switch fluorescence ratio was 0.973.
GTACTGCCCA gave a switch fluorescence ratio of 1.14.
For GTACTGGTGG, the switch fluorescence ratio was 1.02.
GTACTGTGCA showed a switch fluorescence ratio of 1.
GTAGAGGG was tested, and the switch fluorescence ratio was 1.02.
GTAGATGCGG was tested, and the switch fluorescence ratio was 0.996.
GTAGATGTCC gave a switch fluorescence ratio of 1.04.
In the case of GTAGCACGAG, the switch fluorescence ratio is reported as 1.32.
GTAGCACTAT gave a switch fluorescence ratio of 2.03.
GTAGCCAGGA was tested, and the switch fluorescence ratio was 0.995.
GTAGCTCAGT gave a switch fluorescence ratio of 1.
GTAGCTCGGA was tested, and the switch fluorescence ratio was 1.05.
For GTAGGAGAAG, the switch fluorescence ratio was 0.95.
In the case of GTAGGAGACG, the switch fluorescence ratio is reported as 1.14.
GTAGGCGCTC showed a switch fluorescence ratio of 1.01.
Sequence GTAGGCTTGA has a switch fluorescence ratio of 1.03.
For GTAGGGTTTC, the switch fluorescence ratio was 0.978.
GTAGGTAG was tested, and the switch fluorescence ratio was 1.03.
With GTAGGTGGGC the switch fluorescence ratio was 0.947.
Sequence GTAGGTGGTG has a switch fluorescence ratio of 1.
With GTAGTAAGGA the switch fluorescence ratio was 1.27.
GTAGTAATCG showed a switch fluorescence ratio of 1.07.
GTAGTAGGT was tested, and the switch fluorescence ratio was 1.
In the case of GTAGTCGCCC, the switch fluorescence ratio is reported as 1.02.
Sequence GTAGTCTGCT has a switch fluorescence ratio of 0.983.
GTAGTGGGTG was tested, and the switch fluorescence ratio was 1.
GTAGTTAGA was tested, and the switch fluorescence ratio was 0.988.
In the case of GTATAGGGCG, the switch fluorescence ratio is reported as 0.958.
GTATATTACT gave a switch fluorescence ratio of 1.03.
Work on GTATATTTGA yielded a switch fluorescence ratio of 1.01.
GTATCACGGT was tested, and the switch fluorescence ratio was 1.03.
With GTATCACTAT the switch fluorescence ratio was 0.971.
GTATCCTCCG was tested, and the switch fluorescence ratio was 2.85.
Work on GTATCGACAC yielded a switch fluorescence ratio of 1.04.
In the case of GTATCTAAGT, the switch fluorescence ratio is reported as 1.02.
Work on GTATGAAAAA yielded a switch fluorescence ratio of 0.989.
GTATGAATTG was tested, and the switch fluorescence ratio was 0.953.
Sequence GTATGACACT has a switch fluorescence ratio of 1.03.
Sequence GTATGAGAGG has a switch fluorescence ratio of 0.955.
GTATGAGATG was tested, and the switch fluorescence ratio was 0.974.
GTATGAGGTC showed a switch fluorescence ratio of 0.943.
In the case of GTATGATTTT, the switch fluorescence ratio is reported as 1.01.
GTATGGACA showed a switch fluorescence ratio of 1.01.
GTATGTCCAC was tested, and the switch fluorescence ratio was 1.02.
In the case of GTATGTGGA, the switch fluorescence ratio is reported as 0.968.
With GTATTAAAA the switch fluorescence ratio was 1.03.
GTATTAACTC showed a switch fluorescence ratio of 1.01.
GTATTAGTCA showed a switch fluorescence ratio of 0.981.
GTATTATATA was tested, and the switch fluorescence ratio was 0.979.
GTATTATTCG showed a switch fluorescence ratio of 0.978.
With GTATTCCCGT the switch fluorescence ratio was 0.979.
For GTATTTACCT, the switch fluorescence ratio was 1.21.
With GTCAAAAACG the switch fluorescence ratio was 1.05.
Sequence GTCAATGTGT has a switch fluorescence ratio of 0.978.
GTCAATTCAT showed a switch fluorescence ratio of 0.988.
With GTCACAAGA the switch fluorescence ratio was 0.997.
For GTCACAGAAT, the switch fluorescence ratio was 1.04.
GTCACATGTT was tested, and the switch fluorescence ratio was 0.964.
GTCACCCAAC was tested, and the switch fluorescence ratio was 1.13.
GTCACCCATG was tested, and the switch fluorescence ratio was 1.13.
In the case of GTCACCGGGG, the switch fluorescence ratio is reported as 1.03.
With GTCACTCTGG the switch fluorescence ratio was 1.01.
GTCAGAATGG was tested, and the switch fluorescence ratio was 1.03.
Work on GTCAGAGGAG yielded a switch fluorescence ratio of 0.998.
Sequence GTCAGCAGTG has a switch fluorescence ratio of 1.02.
GTCAGGACGG was tested, and the switch fluorescence ratio was 1.02.
GTCAGGCCTC was tested, and the switch fluorescence ratio was 0.995.
In the case of GTCAGGGAAC, the switch fluorescence ratio is reported as 0.965.
In the case of GTCAGTGCAT, the switch fluorescence ratio is reported as 0.984.
Work on GTCAGTGTAA yielded a switch fluorescence ratio of 1.03.
Work on GTCAGTTGGG yielded a switch fluorescence ratio of 0.974.
Work on GTCATAGGCC yielded a switch fluorescence ratio of 0.995.
Sequence GTCATAGTCG has a switch fluorescence ratio of 0.969.
GTCATCCGGC showed a switch fluorescence ratio of 1.06.
GTCATGCAGT showed a switch fluorescence ratio of 1.01.
GTCATGTTGT was tested, and the switch fluorescence ratio was 0.996.
In the case of GTCATTGAC, the switch fluorescence ratio is reported as 1.04.
Work on GTCCAATTAA yielded a switch fluorescence ratio of 0.969.
Work on GTCCCAGCTC yielded a switch fluorescence ratio of 1.07.
Work on GTCCCATGGA yielded a switch fluorescence ratio of 0.97.
With GTCCGACATC the switch fluorescence ratio was 1.4.
Sequence GTCCGGGGAT has a switch fluorescence ratio of 1.01.
GTCCTCGATA showed a switch fluorescence ratio of 1.14.
With GTCCTCTGGA the switch fluorescence ratio was 0.996.
GTCCTGAAGA gave a switch fluorescence ratio of 1.
In the case of GTCCTGCCGG, the switch fluorescence ratio is reported as 1.07.
GTCCTGGTTT showed a switch fluorescence ratio of 1.06.
With GTCCTGTGAG the switch fluorescence ratio was 1.02.
Work on GTCGAATCGC yielded a switch fluorescence ratio of 0.992.
Work on GTCGAGCATA yielded a switch fluorescence ratio of 1.13.
GTCGAGGAAG gave a switch fluorescence ratio of 1.02.
In the case of GTCGAGGAGG, the switch fluorescence ratio is reported as 0.998.
For GTCGATTATC, the switch fluorescence ratio was 0.98.
With GTCGCACATC the switch fluorescence ratio was 1.62.
For GTCGCACTAT, the switch fluorescence ratio was 1.19.
Sequence GTCGCCCGTG has a switch fluorescence ratio of 1.01.
Work on GTCGCCTGGA yielded a switch fluorescence ratio of 1.01.
GTCGCGCCG gave a switch fluorescence ratio of 0.925.
GTCGCGTGAG gave a switch fluorescence ratio of 1.01.
With GTCGCTACAA the switch fluorescence ratio was 0.975.
In the case of GTCGCTGATA, the switch fluorescence ratio is reported as 0.979.
